PubChem BioAssay AID743279 (National Center for Advancing Translational Sciences (NCATS), 2014)
Hit rate of the full screen: of about 360,000 compounds, about 17,000 (4.7%) were called active. This list was built around the results that the source calls inconclusive (neither active nor inactive); the mix of calls is not that of the screen. Rule as the data show it: active = activity change below about -50%; inconclusive = mostly about -30% to -49%; inactive = weaker than that.
% is scaled to controls: 0 for no effect and ±100 for the full control effect.

Assay: qHTS for Inhibitors of Inflammasome Signaling: IL-1-beta AlphaLISA Primary Screen
Conditions: THP-1 LPS/ATP IL-1B secretion, 16 h; at 57.5 µM, active compounds read low
Outline: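 THP-1 cells pretreated 1 hr with compounds (up to 57.5 uM final), then stimulated with LPS (250 ng/mL final) plus ATP (1.25 mM final); secreted IL-1B measured by AlphaLISA after 16 hr, decreased signal indicating inhibition.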
With `COc1cc2c(cc1OC)CN(C(=O)c1cc(S(=O)(=O)N3CCOCC3)c(Cl)cc1Cl)CC2` the activity change was inconclusive: -39.6%. In the case of `O=C1CCCC2=C1C(c1ccc(O)cc1)c1c(ccc3ccccc13)N2` (configuration not stated), the activity change is reported as inactive: -17.3%. In the case of `C[C@H](O)[C@@H]1C(=O)N2CCc3ccc(-c4ccccc4)cc3[C@@H]2C[C@@H]1N(C)C(=O)Nc1cc(Cl)cc(Cl)c1`, the activity change is reported as inconclusive: -42.4%. In the case of `Cc1c(O)ccc2c(CN3CCN(C/C=C/c4ccccc4)CC3)cc(=O)oc12`, the activity change is reported as active: -76.7%. With `CCOC(=O)c1sc2nc(-c3ccco3)c3c(c2c1N)CC(C)(C)OC3` the activity change was active: -52.6%. With `COc1ccccc1CCn1cnc(-c2ccc(OC)c(OC)c2)c1C(C)C` the activity change was active: -51.3%. For `COc1ccc(CCN2C(=O)CSC2c2ccc(F)cc2)cc1` (configuration not stated), the activity change was inactive: 10.8%. In the case of `Cc1ccc(NCc2nc3ccccc3n2CCOc2ccccc2)cc1`, the activity change is reported as active: -96.4%. With `Cc1nn(CCOc2cccc(Cl)c2)c(C)c1[N+](=O)[O-]` the activity change was inconclusive: -33%. With `COC(=O)c1ccc(CNC(=O)c2ccc(OC)c(S(=O)(=O)NC3CC3)c2)cc1` the activity change was inactive: 6.72%. For `CC1(C)CN(C(Cc2ccccc2)C(N)=O)C1=O` (configuration not stated), the activity change was inactive: 24.1%. In the case of `CCOc1cc(C2/C(=C(/O)c3ccc(OC(C)C)cc3)C(=O)C(=O)N2CCCOC)ccc1O` (configuration not stated), the activity change is reported as inactive: 22.2%. With `OCCCNc1nc(-c2ccccc2)c2cc(Br)ccc2n1` the activity change was active: -75.8%. In the case of `C=CCC[C@@H](Cc1ccc(F)cc1)C(=O)OC[C@H](Cc1c[nH]c2ccccc12)NC(=O)[C@@H](CC=C)CC(=O)N(CCO)Cc1ccccc1`, the activity change is reported as inconclusive: -33.2%. For `CCOc1ccc(-n2cc(C(=O)Nc3ccc(Cl)cn3)c3cc(OC)c(OC)cc3c2=O)cc1`, the activity change was inactive: -5.3%. In the case of `COc1ccc(-c2cnc3c(NC=O)cc(-c4ccccc4OC)cn23)cc1OC`, the activity change is reported as inactive: 31.8%. In the case of `Nc1cccc([N+](=O)[O-])c1`, the activity change is reported as inactive: -17.3%. In the case of `CCCC[C@@H]1CNCCN1CC1(c2ccccc2)CC1`, the activity change is reported as inconclusive: -48.2%. In the case of `Cc1ccccc1NC(=O)Nc1cnccn1`, the activity change is reported as inconclusive: -38.5%. In the case of `CN(C(=O)CSc1nc2ccccc2o1)C1CCCCC1`, the activity change is reported as inconclusive: -43.2%. With `O=C(N/N=C/c1cccnc1)c1sc2ccccc2c1Cl` the activity change was inconclusive: -49.3%. For `NNC(=O)c1ccc2nc(-c3ccc(Br)cc3)cn2c1`, the activity change was inactive: -26.3%. In the case of `C=CCCC(=O)Nc1nc(C)c(-c2csc(Nc3ccc(Cl)cc3Cl)n2)s1`, the activity change is reported as inactive: -21.4%. For `O=C(Nc1ccc([N+](=O)[O-])cc1)Nc1ccon1`, the activity change was inactive: -0.0913%. In the case of `COc1cc(NC(=O)CSc2nc3[nH]ncc3c(=O)n2-c2ccccc2)cc(OC)c1OC`, the activity change is reported as inconclusive: -31.1%. For `O=C(COC(=O)c1ccc[nH]c1=O)c1ccc(Cl)s1`, the activity change was inconclusive: -33.1%. For `O=C(CN1CCCCC1)Nc1nc(-c2ccc(Cl)cc2)cs1`, the activity change was active: -82%. With `CCCCN1CCc2c([nH]c3ccc(C)cc23)C1=O` the activity change was inconclusive: -32.4%. In the case of `CC(=O)Nc1cc(-c2ccc(C(=O)N3CCOCC3)cc2)cn2c(-c3ccc(F)c(Cl)c3)cnc12`, the activity change is reported as inconclusive: -36.9%. For `CC(=O)NC(Cc1ccc(F)c(F)c1)C(=O)NC1CCN(C(=O)c2ccc(Cl)cc2)CC1` (configuration not stated), the activity change was inactive: -6.15%. In the case of `O=C(Nc1ccc(N2CCCCC2)cc1)c1ccccc1`, the activity change is reported as inconclusive: -49.3%. With `N=c1c2c(ncn1CCN1CCOCC1)Oc1ccc3ccccc3c1C2c1ccccc1` (configuration not stated) the activity change was inconclusive: -31.6%. In the case of `CCn1c2ccccc2c2nnc(SCCN3CCCCC3)nc21`, the activity change is reported as inconclusive: -45.4%. In the case of `COc1ccc(/C=N/Nc2nncn2N)cc1Br`, the activity change is reported as inconclusive: -46.3%. With `COC(=O)COc1cccc(NC(=O)c2ccc(Cl)cc2)c1` the activity change was inconclusive: -38.1%. With `C[C@@H]1C(c2ccccc2)=NN(c2ccc(Br)cc2)[C@H]1C(=O)N1CCOC1=O` the activity change was inconclusive: -45.7%. For `CN(Cc1cc(Cl)cc(Cl)c1)CC(C(=O)c1ccccc1)c1ccccc1` (configuration not stated), the activity change was active: -78.9%. With `CCOC(=O)N1CCC(NC(=O)c2ccc3c(c2)N=C(C)c2c(C)ccc(C)c2S3)CC1` the activity change was inactive: 14.5%. With `Cc1cc(N2CCCC2=O)c(N)cc1N` the activity change was inactive: -3.93%. With `CC(=O)Nc1ccc(/C=N/Nc2nc3ccccc3[nH]2)cc1` the activity change was active: -94%. In the case of `O=[N+]([O-])c1cc(O)c2ncccc2c1`, the activity change is reported as active: -94.6%. With `Cc1ccc(-n2nc3c(c2NC(=O)CC(C)C)CS(=O)C3)cc1` (configuration not stated) the activity change was inactive: 9.31%. With `C[C@H]1CN(C2CCCCC2)C(=O)[C@@H]1CC(=O)Nc1ccccc1` the activity change was inconclusive: -32.4%. For `Cc1ccc(C)c(-n2cc(CNCCc3cnccn3)c(-c3ccccc3)n2)c1`, the activity change was inconclusive: -40.2%. In the case of `O=C1/C(=C/c2cccc(F)c2)Oc2cc(O)ccc21`, the activity change is reported as active: -79.2%. With `N#CCCN1CCN(C(=S)c2ccc(-c3cc(Cl)ccc3Cl)o2)CC1` the activity change was inconclusive: -38.4%. With `Nc1ccc(N2CCCCC2)cc1N1CCCCC1` the activity change was inconclusive: -30.2%. In the case of `Oc1ccc(/C=N/Nc2cccc(Cl)n2)c(O)c1`, the activity change is reported as inconclusive: -35.3%. In the case of `Cc1ncc(CN2CCCC(C(=O)Nc3ccc(-c4cccc(F)c4)cc3)C2)s1` (configuration not stated), the activity change is reported as inconclusive: -40.6%. For `Cc1ccc(NC(=O)NC(=O)N(C(C)C)S(C)(=O)=O)nc1`, the activity change was inactive: 3.91%. In the case of `O=C(O)c1cccc(NC2=C(Cl)C(=O)c3ccccc3C2=O)c1`, the activity change is reported as active: -65.4%. With `CCc1nc2ccc(C(=O)N(CC)CCN(C)C)cn2c1N(C)CCCc1ccccc1` the activity change was inconclusive: -48%. With `C/C=C\C=C\C(=O)Nc1cccc(C2=NOC3(C2)C[C@@H](C(N)=O)N(C(=O)C(c2ccccc2)c2ccccc2)C3)c1` (some centres not stated) the activity change was inconclusive: -30.2%. With `O=C(CNc1cc(S(=O)(=O)N2CCOCC2)ccc1NCC1CCCO1)Nc1cccc(F)c1` (configuration not stated) the activity change was inconclusive: -40.6%. In the case of `COc1ccc(C2=CSC3=NCCN23)cc1Cl`, the activity change is reported as inconclusive: -35.8%. For `Cc1sc2nc(-c3ccccc3F)oc(=O)c2c1C`, the activity change was inactive: 43.9%. In the case of `CC1=Nc2ccccc2/C1=C/c1sc(=O)n(CC(=O)N2CCCC2)c1O`, the activity change is reported as inconclusive: -35.1%. With `COc1ccccc1C(=O)NCCNc1nc2cc(C)cc(C)c2cc1C#N` the activity change was inconclusive: -39.4%. For `COc1ccc(C(=O)N2CCc3cc4c(cc3C2C)OCCCO4)cc1` (configuration not stated), the activity change was inactive: -1.74%. For `O=C(c1cn(-c2ccccc2)nc1-c1cccc(Br)c1)N1CCOCC1`, the activity change was inconclusive: -47.6%. In the case of `O[Si](CCCN1CCCCC1)(c1ccc(F)cc1)C1CCCCC1` (configuration not stated), the activity change is reported as inconclusive: -43.8%. With `CCCCNC(=O)c1ccccc1C(=O)NC1(C(=O)NCCCC)CCCC1` the activity change was inactive: 2.11%. In the case of `Cc1cc(C)c(C(=O)OCC(=O)Nc2cccc(S(=O)(=O)N3CCCCC3)c2)c(C)c1`, the activity change is reported as inconclusive: -34.1%. With `O=C(COC(=O)/C=C/c1ccc(OC(F)F)cc1)NC1CCCCC1` the activity change was inactive: 17.5%. For `CC(C)(Oc1ccc(Cl)cc1)C(=O)Nc1c2c(nn1C(C)(C)C)CS(=O)(=O)C2`, the activity change was inconclusive: -32.7%. In the case of `CN(Cc1ccc(OC(F)F)cc1)C(=O)c1ccccc1Sc1ccccc1C#N`, the activity change is reported as inconclusive: -43.3%. In the case of `CC(C)c1ccc(NC(=O)C2Cc3c(-c4ccco4)ccnc3O2)cc1` (configuration not stated), the activity change is reported as inconclusive: -31.5%. With `Cc1cc(C)cc(N(CC(=O)NC2CCCC2)S(=O)(=O)c2c(C)[nH]c(=O)[nH]c2=O)c1` the activity change was inactive: 8.39%. For `Cc1ccnc2c1ccc1c(C)ccnc12`, the activity change was inconclusive: -37.8%. For `CN(CCO)c1ccc(-c2n[nH]c(=O)c3ccccc23)cc1[N+](=O)[O-]`, the activity change was inactive: -0.933%. In the case of `Cc1ccc(Cl)cc1-c1cc(C(=O)N2CCc3ccccc3C2)[nH]n1`, the activity change is reported as inconclusive: -32.9%. In the case of `CCOc1ccccc1NC(=O)CSc1nnc(-c2ccccc2Cl)n1Cc1ccco1`, the activity change is reported as inconclusive: -40.3%. In the case of `CC(=O)Nc1ccc(/C=C(\C#N)C(=O)NCc2ccccc2)cc1`, the activity change is reported as active: -67.8%. With `Cc1ccccc1C1C(C#N)=C2N=C(N)c3ccccc3N2C2=C1C(=O)CCC2` (configuration not stated) the activity change was inconclusive: -31.1%. With `Cc1cc(/C=C2\SC(=S)N(C)C2=O)c(C)n1-c1ccc(O)cc1` the activity change was inconclusive: -34.1%. With `Oc1ccc(Br)cc1/C=N/Nc1nc(N2CCCCC2)nc(N2CCOCC2)n1` the activity change was inconclusive: -32.6%. With `COc1ccc(OC)c(C(O)c2ncc(-c3cccc4ccccc34)[nH]2)c1` (configuration not stated) the activity change was inactive: 45.6%. For `C=CC[C@@H](CC(=O)OC(C)(C)C)C(=O)OC[C@H]1CCCN1C(=O)[C@@H](CC=C)CC(=O)N(CCO)Cc1ccccc1`, the activity change was active: -62.3%. For `CC(=NNC(=S)Nc1ccc(C)cc1)c1ccccn1`, the activity change was inconclusive: -46%. In the case of `CCn1cc(C(=O)NCCCOC)c(=O)c2cc(S(=O)(=O)N3CCCC3)ccc21`, the activity change is reported as inactive: -10.3%. In the case of `CC(Oc1ccc(F)cc1)C(=O)Nc1cc(S(=O)(=O)N2CCCCC2)ccc1N1CCN(C)CC1` (configuration not stated), the activity change is reported as inconclusive: -30.7%. With `O=C(CSc1nc(-c2ccccc2)cs1)N1CCc2ccccc21` the activity change was inconclusive: -30.3%. In the case of `O=C(NC1CCN(C(=O)Nc2ccccc2Cl)CC1)c1cccc(F)c1`, the activity change is reported as inactive: 13.1%. With `O=[N+]([O-])c1nn(-c2ccc3c(c2)OCCO3)n(O)c1=NC1CCCC1` the activity change was inconclusive: -31.7%. In the case of `C=CC[C@H](CC(=O)N(CCO)Cc1ccccc1)C(=O)N[C@H](COC(=O)[C@@H](CC=C)CC(=O)OC(C)(C)C)c1ccccc1`, the activity change is reported as active: -64.5%. In the case of `OCCCn1c(CCNc2nc(-c3ccc(F)cc3)cs2)nc2cc(C(F)(F)F)ccc21`, the activity change is reported as active: -69%. In the case of `Cc1cc(C(=O)CN2C(=O)CN(C)C2=O)c(C)n1-c1cccc(S(=O)(=O)N2CCOCC2)c1`, the activity change is reported as inactive: -9.61%.
